Test results from PubChem BioAssay (NCATS).
“And” between values parts separate entries of the source, which are not always exact repeats. Equal values may be shown once. Inconclusive results, whose numbers are uncertain, are shown with a selection of clear calls. A potency beside an inconclusive call is a rough fit, not a confirmed value. The source made the active and inactive calls. Calls follow the shape of the dose curve; as a rule, active = well fitted curve in the direction sought with a large enough effect; inconclusive = small, poorly fitted or top-dose-only effect, or another doubt; inactive = no such curve, though single readings can be large; an effect the other way counts as inactive or inconclusive.

Experiments:
[1] = qHTS Assay for Identifying Gametocytocidal Compounds (AID 743244); conditions: P. falciparum 3D7 stage III-V gametocytes, alamarBlue, 72 h; max response: stronger effect = lower value
In short: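 Compounds are pinned into medium, gametocytes (stage III–V, 3D7, 20,000 cells/well) added, and plates held 72 h at 37 °C in 5% CO2. AlamarBlue follows for 24 h before fluorescence reading.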

[2] = qHTS Screen of the MIPE 4.0 Collection Against Ewings Sarcoma (RDES) (AID 1259252); also: nearly all actives have a fitted effect of over 35% in size
In short: (§1)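 Viability screen: 48 h incubation at 37C, 95% humidity, 5% CO2 with serially titrated compound, followed by CellTiter-Glo readout.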

[3] = qHTS Screen of the MIPE 4.0 Collection Against Ewings Sarcoma (TC71) (AID 1259253); also: nearly all actives have a fitted effect of over 40% in size
In short: as §1

[4] = qHTS Screen of the MIPE 4.0 Collection Against Ewings Sarcoma (EW8) (AID 1259255); also: nearly all actives have a fitted effect of over 35% in size;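 as to viability: 100% = DMSO-treated cells and 0% = medium-only wells without cells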
In short: as §1

[5] = qHTS Screen of the MIPE 4.0 Collection Against Ewings Sarcoma (TC32) (AID 1259256); also: nearly all actives have a fitted effect of over 45% in size;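 as to viability (percent of control): 100% = DMSO-treated cells and 0% = medium-only wells without cells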
In short: as §1

[6] = P-glycoprotein substrates identified in KB-3-1 adenocarcinoma cell line, qHTS therapeutic library screen (AID 1346986); also: nearly all actives have a fitted effect of over 60% in size;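 also: potency is for cytotoxicity meaning loss of cell viability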
In short: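 Viability by CellTiter-Glo after 72 h compound exposure at 37 degree C, 5% CO2. Cytotoxic call: curve class -1.1 to -2.4, maximum response >50%, AC50 < 10 uM, compared across KB-3-1 and P-gp-overexpressing KB-8-5-11.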

[7] = P-glycoprotein substrates identified in KB-8-5-11 adenocarcinoma cell line, qHTS therapeutic library screen (AID 1346987); also: nearly all actives have a fitted effect of over 65% in size
In short: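 Human cervical adenocarcinoma KB-8-5-11 cells, selected in colchicine to over-express P-gp and assayed without it, were exposed for 72 h to titrated compounds. An ATP-based luminescent viability signal gave AC50.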

[8] = Identifying Small Molecule Inhibitors of Pancreatic Cancer Stem Cells (A2780, Spheroid) (AID 1259357); conditions: Potency: A2780 spheroid viability; viability (percent of control): at 46.1 µM (top of the series);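 also: spheroids pre-formed over 14 days in stem cell medium on hydrogel; compound exposure lasted 48 h before the ATP luminescence read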
In short: (§2)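 Adherent (2D) versus sphere (3D) formats; spheres generated 14 d in SCM beforehand. Compound transferred by pin tool after 4 h, 48 h incubation, CellTiter-Glo endpoint.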

[9] = Identifying Small Molecule Inhibitors of Pancreatic Cancer Stem Cells (Panc1, Spheroid) (AID 1259359); conditions: Panc1 spheroid cancer stem cell viability; viability, % of control: at 46.1 µM (top of the series);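 also: compound exposure lasted 48 h before reading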
In short: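 Luminescent ATP readout (CellTiter-Glo) quantifies surviving cells after a 48 h drug incubation. Normalization uses DMSO wells as no inhibition and media-only wells as full inhibition; bortezomib served as positive control.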

[10] = Identifying Small Molecule Inhibitors of Pancreatic Cancer Stem Cells (SN12C, Spheroid) (AID 1259360); conditions: Potency: SN12C spheroid viability
In short: as §2

[11] = Identifying Small Molecule Inhibitors of Pancreatic Cancer Stem Cells (Panc1, Adherent) (AID 1259362); conditions: Potency: viability; viability, % of control: at 46.1 µM (top of the series);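 as to viability, % of control: compound exposure lasted 48 h before the viability read; plate controls were DMSO-treated cells for no effect and cell-free media wells for full effect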
In short: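 Viability is scored by CellTiter-Glo luminescence 48 h after dosing, expressed as percent activity against vehicle and no-cell references. Spheroid formats rely on cells cultured 14 days in stem cell media beforehand.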
Potency is read from the fitted curve at half-maximal effect; tags tell the direction and shape of the fitted curve.

Compound: COc1cc2nc(N3CCN(C(=O)c4ccco4)CC3)nc(N)c2cc1OC
- Potency [1]: active: 11.2 µM
- Potency [2]: inconclusive: 33.2 µM [inhibitor, single point]
- Potency [3]: inconclusive: 26.4 µM [inhibitor, single point]
- Potency [4]: active: 18.7 µM
- Potency [5]: inconclusive: 26.4 µM [inhibitor, single point]
- Potency [6]: inconclusive: 29.1 µM [inhibitor, single point]
- Potency [7]: inconclusive: 33.2 µM [inhibitor, single point] and inconclusive: 29.1 µM [inhibitor, single point]

Compound: Clc1cc(Cl)cc(CNc2ncncc2-c2ccc3c(c2)OCO3)c1
- Potency [2]: inconclusive: 33.2 µM [inhibitor, single point]
- Potency [3]: inconclusive: 33.2 µM [inhibitor, single point]
- Potency [4]: inconclusive: 33.2 µM [inhibitor, single point]
- Potency [5]: inconclusive: 37.2 µM [inhibitor, single point]
- Potency [6]: inconclusive: 25.9 µM [inhibitor, single point]
- Potency [7]: active: 13.2 µM and inconclusive: 23.1 µM [inhibitor, single point]

Compound: CNC1CCC(N(Cc2cccc(-c3ccncc3)c2)C(=O)c2sc3c(F)ccc(F)c3c2Cl)CC1 (stereo not drawn)
- Potency [2]: inconclusive: 26.4 µM [inhibitor, partial curve]
- Potency [3]: inconclusive: 26.4 µM [inhibitor, single point]
- Potency [4]: inconclusive: 33.2 µM [inhibitor, single point]
- Potency [5]: inconclusive: 23.5 µM [inhibitor, partial curve]
- Potency [7]: inconclusive: 33.2 µM [inhibitor, single point] and inconclusive: 29.1 µM [inhibitor, single point]

Compound: COc1cc(C(C)=O)ccc1OCCCN1CCC(c2noc3cc(F)ccc23)CC1
- Potency [2]: inconclusive: 37.2 µM [inhibitor, single point]
- Potency [3]: inconclusive: 20.9 µM [inhibitor, partial curve]
- Potency [4]: inconclusive: 37.2 µM [inhibitor, single point]
- Potency [5]: inconclusive: 29.6 µM [inhibitor, single point]
- Potency [7]: inconclusive: 6.51 µM [inhibitor, full curve]

Compound: COc1cc(NC(=O)c2ccc(-c3ccc(Cl)cc3)o2)cc(OC)c1
- Potency [2]: inconclusive: 37.2 µM [inhibitor, single point]
- Potency [3]: inconclusive: 33.2 µM [inhibitor, single point]
- Potency [4]: inconclusive: 33.2 µM [inhibitor, single point]
- Potency [5]: inconclusive: 37.2 µM [inhibitor, single point]

Compound: C=CCc1ccc(O)c(-c2ccc(O)c(CC=C)c2)c1
- Potency [2]: inconclusive: 26.4 µM [inhibitor, single point]
- Potency [3]: inconclusive: 33.2 µM [inhibitor, single point]
- Potency [4]: inconclusive: 26.4 µM [inhibitor, single point]
- Potency [5]: inconclusive: 33.2 µM [inhibitor, single point]
- Potency [7]: inconclusive: 37.2 µM [inhibitor, single point]

Compound: O=c1cc(-c2cccc3c2Sc2ccccc2S3)oc(N2CCOCC2)c1
- Potency [2]: inconclusive: 20.9 µM [inhibitor, partial curve]
- Potency [3]: inconclusive: 23.5 µM [inhibitor, partial curve]
- Potency [4]: inconclusive: 16.6 µM [inhibitor, partial curve]
- Potency [5]: inconclusive: 20.9 µM [inhibitor, partial curve]
- Potency [6]: inconclusive: 29.1 µM [inhibitor, single point]
- Potency [7]: inconclusive: 23.1 µM [inhibitor, single point]

Compound: O=C(O)c1cn(-c2ccc(F)cc2)c2cc(N3CCNCC3)c(F)cc2c1=O
- Potency [2]: inconclusive: 16.6 µM [inhibitor, partial curve, poor fit]
- Potency [3]: inconclusive: 7.43 µM [inhibitor, partial curve, poor fit]
- Potency [4]: inconclusive: 16.6 µM [inhibitor, partial curve, poor fit]
- Potency [5]: inactive

Compound: CC1(C)S[C@H]2[C@H](NC(=O)[C@@H](N)c3ccc(O)cc3)C(=O)N2[C@@H]1C(=O)O
- Potency [2]: inconclusive: 10.5 µM [inhibitor, partial curve, poor fit]
- Potency [3]: inconclusive: 16.6 µM [inhibitor, partial curve, poor fit]
- Potency [4]: inactive
- Potency [5]: inconclusive: 9.35 µM [inhibitor, partial curve, poor fit]
- Potency [6]: inactive

Compound: CN1C(C(=O)Nc2ccccn2)=C(O)c2ccccc2S1(=O)=O
- Potency [2]: inconclusive: 37.2 µM [inhibitor, single point]
- Potency [3]: inconclusive: 37.2 µM [inhibitor, single point]
- Potency [4]: inconclusive: 37.2 µM [inhibitor, single point]
- Potency [5]: inconclusive: 33.2 µM [inhibitor, single point]

Compound: Nc1ncnc2c1ncn2[C@@H]1O[C@H](CO)C[C@@H]1O
- Potency [2]: inconclusive: 23.5 µM [inhibitor, single point]
- Potency [3]: inconclusive: 20.9 µM [inhibitor, partial curve]
- Potency [4]: inactive
- Potency [5]: inconclusive: 16.6 µM [inhibitor, partial curve, poor fit]
- Potency [7]: inconclusive: 18.7 µM [inhibitor, single point]

Compound: Cc1ccc(Nc2cc(-c3cccc(N4C(=O)c5ccccc5C4=O)c3)ncn2)cc1NS(C)(=O)=O
- Potency [2]: inconclusive: 18.7 µM [inhibitor, partial curve]
- Potency [3]: inconclusive: 18.7 µM [inhibitor, partial curve]
- Potency [4]: inconclusive: 23.5 µM [inhibitor, single point]
- Potency [5]: inconclusive: 33.2 µM [inhibitor, single point]
- Potency [7]: inconclusive: 29.1 µM [inhibitor, single point]

Compound: CCN(CC)CCOc1ccc(C(=C(Cl)c2ccccc2)c2ccccc2)cc1
- Potency [2]: inconclusive: 20.9 µM [inhibitor, partial curve]
- Potency [3]: inconclusive: 23.5 µM [inhibitor, single point]
- Potency [4]: inconclusive: 20.9 µM [inhibitor, single point]
- Potency [5]: inconclusive: 33.2 µM [inhibitor, single point]
- Potency [7]: inactive

Compound: NC(=O)NN=Cc1ccc([N+](=O)[O-])o1
- Potency [2]: inconclusive: 37.2 µM [inhibitor, single point]
- Potency [3]: inconclusive: 23.5 µM [inhibitor, single point]
- Potency [4]: inconclusive: 33.2 µM [inhibitor, single point]
- Potency [5]: inconclusive: 37.2 µM [inhibitor, single point]
- Potency [7]: inactive

Compound: c1cc(-c2sc(-c3ccncc3)c(-c3ccncc3)c2-c2ccncc2)ccn1
- Potency [2]: inconclusive: 26.4 µM [inhibitor, single point]
- Potency [3]: inconclusive: 20.9 µM [inhibitor, single point]
- Potency [4]: inconclusive: 18.7 µM [inhibitor, single point]
- Potency [5]: inconclusive: 29.6 µM [inhibitor, single point]

Compound: Cn1cnc2c(F)c(Nc3ccc(Br)cc3Cl)c(C(=O)NOCCO)cc21
- Potency [2]: inconclusive: 18.7 µM [inhibitor, partial curve]
- Potency [3]: active: 16.6 µM
- Potency [4]: active: 2.64 µM
- Potency [8]: inconclusive: 33.2 µM [cytotoxic, partial curve, poor fit]
- Potency [9]: inconclusive: 9.35 µM [cytotoxic, full curve, poor fit]
- Potency [10]: inconclusive: 6.62 µM [cytotoxic, partial curve, poor fit]
- viability, % of control [11]: inconclusive: 103%
- Potency [7]: inactive and inconclusive: 14.8 µM [inhibitor, partial curve] and inconclusive: 23.1 µM [inhibitor, single point]

Compound: Cn1cc(-c2ccc3nnc(C(F)(F)c4ccc5ncccc5c4)n3n2)cn1
- Potency [2]: inconclusive: 16.6 µM [inhibitor, partial curve, poor fit]
- Potency [3]: inconclusive: 23.5 µM [inhibitor, single point]
- Potency [4]: inconclusive: 20.9 µM [inhibitor, partial curve, poor fit]
- Potency [8]: inconclusive: 0.0418 µM [rising, full curve, poor fit]
- viability, % of control [9]: inconclusive: 85%
- Potency [10]: inconclusive: 20.9 µM [cytotoxic, partial curve, poor fit]
- Potency [11]: inconclusive: 29.6 µM [cytotoxic, partial curve, poor fit]
- Potency [7]: inconclusive: 8.2 µM [inhibitor, partial curve]

Compound: CCOC(CN1C(=O)[C@](CC(=O)Nc2ccc(C)cc2)(NC(=O)Nc2ccc(C)cc2)c2ccccc21)OCC
- Potency [1]: inconclusive: 74.3 µM [inhibitor, single point]
- Potency [2]: inconclusive: 37.2 µM [inhibitor, single point]
- Potency [3]: inconclusive: 33.2 µM [inhibitor, single point]
- Potency [4]: inconclusive: 33.2 µM [inhibitor, single point]
- Potency [8]: active: 0.0059 µM
- Potency [11]: inconclusive: 29.6 µM [cytotoxic, partial curve, poor fit]
- Potency [7]: inconclusive: 20.9 µM [inhibitor, partial curve, poor fit]
